Experiment [1] has as its target T1, SMAD nuclear-interacting protein 1 (endogenous, 786-O) (human (endogenous in 786-O)) (UniProt Q8TAD8).
T1 sequence: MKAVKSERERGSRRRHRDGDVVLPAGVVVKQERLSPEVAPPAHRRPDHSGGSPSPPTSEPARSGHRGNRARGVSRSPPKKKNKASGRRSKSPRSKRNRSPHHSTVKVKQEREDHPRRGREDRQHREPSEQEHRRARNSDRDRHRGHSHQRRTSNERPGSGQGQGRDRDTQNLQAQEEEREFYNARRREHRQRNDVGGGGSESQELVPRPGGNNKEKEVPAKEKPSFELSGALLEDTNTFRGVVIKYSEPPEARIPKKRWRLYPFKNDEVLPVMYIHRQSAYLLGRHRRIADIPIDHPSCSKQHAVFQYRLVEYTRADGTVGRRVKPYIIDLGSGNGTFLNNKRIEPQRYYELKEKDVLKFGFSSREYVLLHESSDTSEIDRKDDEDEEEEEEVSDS
The experiment in a line: co-IP; 786-O lysate (empty vector, HA-DPF3a or HA-DPF3b cells; also after SNIP1 knock-down by shRNA); IP with antibody against HA or SNIP1, 2-4 h at 4 °C, washed three times with TBST, immunoblotting. A general note: In western blotting, separated proteins are transferred to a membrane and probed.

By UniProt entry, the sequences of proteins in these tests, tags left out.
UniProt Q09472: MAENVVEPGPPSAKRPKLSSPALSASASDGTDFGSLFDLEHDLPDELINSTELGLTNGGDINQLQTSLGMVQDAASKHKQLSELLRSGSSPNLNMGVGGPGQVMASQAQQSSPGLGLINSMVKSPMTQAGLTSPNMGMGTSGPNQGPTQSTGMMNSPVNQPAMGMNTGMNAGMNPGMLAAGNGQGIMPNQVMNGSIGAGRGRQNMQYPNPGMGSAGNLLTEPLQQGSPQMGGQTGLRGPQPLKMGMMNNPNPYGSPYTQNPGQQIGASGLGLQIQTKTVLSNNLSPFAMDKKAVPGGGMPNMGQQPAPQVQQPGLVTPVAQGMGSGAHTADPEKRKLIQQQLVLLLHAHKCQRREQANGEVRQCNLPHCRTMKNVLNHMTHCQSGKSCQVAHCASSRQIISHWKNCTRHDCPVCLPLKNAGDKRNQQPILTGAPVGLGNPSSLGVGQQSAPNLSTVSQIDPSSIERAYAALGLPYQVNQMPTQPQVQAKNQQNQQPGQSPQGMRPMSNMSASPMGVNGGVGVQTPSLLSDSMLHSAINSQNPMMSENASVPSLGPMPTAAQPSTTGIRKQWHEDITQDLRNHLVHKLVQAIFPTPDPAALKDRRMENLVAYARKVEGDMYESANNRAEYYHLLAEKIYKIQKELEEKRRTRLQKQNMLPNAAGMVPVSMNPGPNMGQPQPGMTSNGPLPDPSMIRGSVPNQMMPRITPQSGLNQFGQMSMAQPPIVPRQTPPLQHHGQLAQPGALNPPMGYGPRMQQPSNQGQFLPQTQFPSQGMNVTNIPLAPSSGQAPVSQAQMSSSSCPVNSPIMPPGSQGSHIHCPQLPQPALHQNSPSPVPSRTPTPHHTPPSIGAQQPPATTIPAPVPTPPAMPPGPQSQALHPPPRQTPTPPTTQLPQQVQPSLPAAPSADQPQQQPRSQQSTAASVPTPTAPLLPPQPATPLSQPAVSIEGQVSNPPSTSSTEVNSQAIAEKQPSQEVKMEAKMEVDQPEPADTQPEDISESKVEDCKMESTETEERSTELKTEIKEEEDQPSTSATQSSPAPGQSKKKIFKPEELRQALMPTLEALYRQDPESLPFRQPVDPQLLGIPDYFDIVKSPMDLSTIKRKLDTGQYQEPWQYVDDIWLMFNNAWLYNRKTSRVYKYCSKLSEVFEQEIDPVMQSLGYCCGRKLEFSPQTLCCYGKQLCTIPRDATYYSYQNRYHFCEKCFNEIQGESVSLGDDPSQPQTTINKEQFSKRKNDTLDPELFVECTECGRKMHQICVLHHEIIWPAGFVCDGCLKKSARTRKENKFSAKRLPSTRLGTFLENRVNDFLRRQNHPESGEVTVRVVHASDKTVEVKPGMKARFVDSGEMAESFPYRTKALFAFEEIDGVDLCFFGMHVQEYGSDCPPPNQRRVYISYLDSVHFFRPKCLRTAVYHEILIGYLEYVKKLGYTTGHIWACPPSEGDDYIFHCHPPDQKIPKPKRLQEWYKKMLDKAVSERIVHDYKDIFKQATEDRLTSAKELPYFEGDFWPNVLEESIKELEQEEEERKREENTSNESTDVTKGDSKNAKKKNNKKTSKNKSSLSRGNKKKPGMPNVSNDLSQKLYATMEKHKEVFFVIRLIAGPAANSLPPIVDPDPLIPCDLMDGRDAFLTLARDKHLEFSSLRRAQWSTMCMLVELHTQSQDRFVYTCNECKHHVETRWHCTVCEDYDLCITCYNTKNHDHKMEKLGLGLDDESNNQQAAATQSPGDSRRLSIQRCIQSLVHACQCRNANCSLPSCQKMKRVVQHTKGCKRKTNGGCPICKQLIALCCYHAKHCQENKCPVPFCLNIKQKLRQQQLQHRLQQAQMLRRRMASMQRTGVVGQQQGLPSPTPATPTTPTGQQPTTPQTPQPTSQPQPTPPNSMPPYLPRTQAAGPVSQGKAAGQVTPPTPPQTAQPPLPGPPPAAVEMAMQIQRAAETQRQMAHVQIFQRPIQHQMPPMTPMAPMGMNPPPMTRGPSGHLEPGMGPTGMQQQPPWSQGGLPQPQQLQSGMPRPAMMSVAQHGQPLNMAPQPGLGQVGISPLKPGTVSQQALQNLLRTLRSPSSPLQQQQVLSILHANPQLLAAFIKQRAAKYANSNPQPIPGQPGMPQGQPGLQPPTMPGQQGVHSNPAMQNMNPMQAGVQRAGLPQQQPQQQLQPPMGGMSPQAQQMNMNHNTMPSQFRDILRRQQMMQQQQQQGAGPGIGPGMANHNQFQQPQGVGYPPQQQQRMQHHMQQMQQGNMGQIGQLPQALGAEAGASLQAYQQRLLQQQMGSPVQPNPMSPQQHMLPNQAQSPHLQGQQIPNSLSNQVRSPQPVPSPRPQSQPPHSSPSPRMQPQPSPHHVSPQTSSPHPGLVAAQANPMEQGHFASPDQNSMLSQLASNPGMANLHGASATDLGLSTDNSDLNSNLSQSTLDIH

For experiment [2], the target named is T2, Flag-tagged full-length SNIP1 (HEK293T) (human) (UniProt Q8TAD8).
T2 sequence: T1 sequence
The experiment in a line: co-IP; HEK293T co-transfected with HA-tagged DPF3a constructs and Flag-tagged SNIP1 constructs; IP with anti-HA or anti-Flag magnetic beads, immunoblotting with anti-Flag or anti-HA.

The target in experiment [3] is T1, SMAD nuclear-interacting protein 1 (endogenous, 786-O) (human (endogenous in 786-O)). Description: co-IP; 786-O lysate (empty vector, HA-DPF3a or HA-DPF3b cells; also after SNIP1 knock-down by shRNA); IP with antibody against HA or SNIP1, 2-4 h at 4 °C, washed three times with TBST, immunoblotting. This is another data set of the same source.
The target in experiment [4] is T3, HA-tagged DPF3a (786-O cells) (human) (UniProt Q92784).
T3 sequence: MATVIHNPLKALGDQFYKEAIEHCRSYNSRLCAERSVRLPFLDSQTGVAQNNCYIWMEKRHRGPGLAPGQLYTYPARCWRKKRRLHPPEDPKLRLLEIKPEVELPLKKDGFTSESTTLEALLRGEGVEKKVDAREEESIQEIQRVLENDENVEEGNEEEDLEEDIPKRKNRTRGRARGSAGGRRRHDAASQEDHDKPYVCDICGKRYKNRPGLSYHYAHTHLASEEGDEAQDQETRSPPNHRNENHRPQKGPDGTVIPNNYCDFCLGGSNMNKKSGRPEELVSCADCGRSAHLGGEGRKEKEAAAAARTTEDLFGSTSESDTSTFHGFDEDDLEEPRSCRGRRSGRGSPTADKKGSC
The experiment is described as above.

Experiment [5] addresses HA-tagged DPF3b (786-O cells) (human) (UniProt Q92784). Described as above.
The target of experiment [6] is T4, HA-tagged full-length DPF3a (HEK293T) (human) (UniProt Q92784).
T4 sequence: T3 sequence
Description: co-IP; HEK293T co-transfected with HA-tagged DPF3a constructs and Flag-tagged SNIP1 constructs; IP with anti-HA or anti-Flag magnetic beads, immunoblotting with anti-Flag or anti-HA.

In experiment [7] the target is T5, GST-tagged DPF3a N-terminus (recombinant) (human) (UniProt Q92784).
T5 sequence: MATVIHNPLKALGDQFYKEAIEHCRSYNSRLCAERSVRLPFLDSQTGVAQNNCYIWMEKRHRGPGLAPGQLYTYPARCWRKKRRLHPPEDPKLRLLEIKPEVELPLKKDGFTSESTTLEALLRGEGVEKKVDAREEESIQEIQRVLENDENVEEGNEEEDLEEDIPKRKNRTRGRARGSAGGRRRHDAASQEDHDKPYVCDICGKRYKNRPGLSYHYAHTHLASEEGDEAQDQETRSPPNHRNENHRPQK
The experiment in a line: pull-down; 1.5 nmol GST-tagged DPF3a or SNIP1 construct on Glutathione Sepharose 4B beads, 2 nmol SNIP1 1-240 or full-length DPF3a added, 4 °C 2 h; 20 mM Tris pH 7.5, 100 mM NaCl, 5 mM β-mercaptomethanol; washes with 0.5% Triton X-100; SDS-PAGE; both purified.

Experiment [8] has as its target T6, GST-tagged DPF3a C-terminus (recombinant) (human) (UniProt Q92784).
T6 sequence: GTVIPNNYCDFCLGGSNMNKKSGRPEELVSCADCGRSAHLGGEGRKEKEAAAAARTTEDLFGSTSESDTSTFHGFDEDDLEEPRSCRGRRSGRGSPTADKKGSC
The description is as above.

Experiment [9] has as its target T7, SMAD nuclear-interacting protein 1 (endogenous, 786-O) (human (endogenous in 786-O)), Q8TAD8.
T7 chain: T1 sequence
The experiment in a line: co-IP; 786-O lysate (empty vector, HA-DPF3a or HA-DPF3b cells; also after SNIP1 knock-down by shRNA); IP with antibody against HA or SNIP1, 2-4 h at 4 °C, washed three times with TBST, immunoblotting. The note with it: remark: other sources report otherwise.

Where two headings read alike, the source gives them in different places. Results are given in words; binding and its absence hold for the method and conditions named. For part of these data: Binding seen in cells or lysates may run through a third protein. Some entries that bind do so weakly or less than the wild type. For part of these data: Tags and fused reporters may be left off the sequences shown.

For the molecule “p300 histone acetyltransferase (endogenous, 786-O) (from UniProt Q09472 1-2414)”, the binding entry in experiment [1] is on record as “binds”.

B1: HA-tagged DPF3a C-terminus (a.a. 254-357) (HEK293T) (domain or fragment, UniProt Q92784-2 254-357)
chain: T6 sequence
With B1, the binding result in experiment [2] was “binds”.

B2: Recombinant full-length DPF3a, GST tag removed (natural protein, human, UniProt Q92784-2 1-357, looked up)
chain: T3 sequence
notes: Zinc finger protein DPF3, isoform DPF3a, cDNA subcloned into pGEX-6P-1; Expressed with 0.1 mM ZnSO4; also called DPF3a-FL; full-length DPF3a proteins; source: E. coli BL21 (DE3)-RIL, purified (Glutathione Sepharose 4B, 3C protease, Superdex 200)
Take B2: in experiment [3], the binding entry is “binds”.

B3: HA-tagged DPF3a N-terminus (a.a. 1-250) (HEK293T) (domain or fragment, UniProt Q92784-2 1-250)
chain: T5 sequence
In the case of B3, in experiment [2], the binding result is listed as “no binding”.

B4: SMAD nuclear-interacting protein 1 (endogenous, 786-O) (protein, UniProt Q8TAD8 1-396)
chain: T1 sequence
For B4, the binding entry is “binds” in experiment [4] and “no binding” in [5].

B5: Flag-tagged full-length SNIP1 (HEK293T) (protein, UniProt Q8TAD8 1-396)
chain: T1 sequence
Consider B5, for which, in [6], the binding entry is “binds”.

B6: Flag-tagged SNIP1 C-terminus (a.a. 236-396) (HEK293T) (domain or fragment, UniProt Q8TAD8 236-396)
chain: TNTFRGVVIKYSEPPEARIPKKRWRLYPFKNDEVLPVMYIHRQSAYLLGRHRRIADIPIDHPSCSKQHAVFQYRLVEYTRADGTVGRRVKPYIIDLGSGNGTFLNNKRIEPQRYYELKEKDVLKFGFSSREYVLLHESSDTSEIDRKDDEDEEEEEEVSDS
With B6, in [6], the binding entry was “no binding”.

B7: Recombinant SNIP1 1-240, GST tag removed (domain or fragment, UniProt Q8TAD8 1-240)
chain: MKAVKSERERGSRRRHRDGDVVLPAGVVVKQERLSPEVAPPAHRRPDHSGGSPSPPTSEPARSGHRGNRARGVSRSPPKKKNKASGRRSKSPRSKRNRSPHHSTVKVKQEREDHPRRGREDRQHREPSEQEHRRARNSDRDRHRGHSHQRRTSNERPGSGQGQGRDRDTQNLQAQEEEREFYNARRREHRQRNDVGGGGSESQELVPRPGGNNKEKEVPAKEKPSFELSGALLEDTNTFR
Regarding B7, the binding result in [7] and in [8] was “binds” throughout.

B8: Flag-tagged SNIP1 IDR (a.a. 1-240) (HEK293T) (domain or fragment, UniProt Q8TAD8 1-240)
chain: B7 chain
Turning to B8, the binding result in experiment [6] is recorded as “binds”.

B9: SMAD4 (endogenous, 786-O), Q13485 1-552 (protein)
chain: MDNMSITNTPTSNDACLSIVHSLMCHRQGGESETFAKRAIESLVKKLKEKKDELDSLITAITTNGAHPSKCVTIQRTLDGRLQVAGRKGFPHVIYARLWRWPDLHKNELKHVKYCQYAFDLKCDSVCVNPYHYERVVSPGIDLSGLTLQSNAPSSMMVKDEYVHDFEGQPSLSTEGHSIQTIQHPPSNRASTETYSTPALLAPSESNATSTANFPNIPVASTSQPASILGGSHSEGLLQIASGPQPGQQQNGFTGQPATYHHNSTTTWTGSRTAPYTPNLPHHQNGHLQHHPPMPPHPGHYWPVHNELAFQPPISNHPAPEYWCSIAYFEMDVQVGETFKVPSSCPIVTVDGYVDPSGGDRFCLGQLSNVHRTEAIERARLHIGKGVQLECKGEGDVWVRCLSDHAVFVQSYYLDREAGRAPGDAVHKIYPSAYIKVFDLRQCHRQMQQQAATAQAAAAAQAAAVAGNIPGPGSVGGIAPAISLSAAAGIGVDDLRRLCILRMSFVKGWGPDYPRQSIKETPCWIEIHLHRALQLLDEVLHTMPIADPQPLD
As for B9, the binding result in [9] is “binds”.
